Values marked as one replicate rest on one cluster of the flow cell; about a third of the high ones do not repeat.

Here are results for 67 sequences from the supplement of paper PMC10126150.
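Further: ATP exposure 15 min at 22 °C before imaging.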

In this data set the test system is ATP. In words: switch fluorescence ratio, 500 uM ATP over buffer (Cy3 cluster intensity, sum of 5 cycles each) (fold (ratio)); higher = stronger signal-on switching upon ATP binding; sequences stand for … in TCGTCGGCAGCGTCAGATGTGTATAAGAGACAGTTTTTTTTTTTTTTTTTTTTTTTTT…TC. To be noted: aptamer strand: ATP DNA aptamer (quencher-CACCTGGGGGAGTATTGCGGAGGAAGG + anchor), 100 nM annealed; ATP concentration: 500 uM; one replicate. The gist of the method:
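The fluorescence ratio divides summed target-cycle Cy3 intensity by summed buffer-cycle Cy3 intensity for each cluster and is averaged per switch-domain sequence. Cy3-labelled switching-strand clusters on a modified Illumina MiSeq flow-cell were annealed to 100 nM quencher-labelled ATP aptamer, then imaged in selection buffer and again after 15 min with 500 uM ATP at 22 °C. Five such cycles were run, with NaOH stripping and re-annealing between them, and clusters outside 100-1000 RFU were excluded.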
Regarding CGCATCCGTG, the switch fluorescence ratio was 1.04.
With AGGCGTGTAA, the switch fluorescence ratio is 0.995.
On to GATGGAGCTG, for which the switch fluorescence ratio was 1.04.
Under CGCGGCTACG stands 0.996; under GAGTATCGCA, 1.05.
TTGCTCTTAG: the switch fluorescence ratio came to 1.05.
As for AGAGGTCGCA, the switch fluorescence ratio was 0.943.
With TCCTCATTGG, the switch fluorescence ratio was determined as 1.
To TTCATGCATT belongs 0.964.
As for ACCAGCATTT, the switch fluorescence ratio came to 1.
Consider GCGGCGAGTA, for which the switch fluorescence ratio came to 0.978.
To ATAATCGTGA belongs 0.969; to ATGGAATACA, 1.04.
As to CAATTCGATG, the switch fluorescence ratio was determined as 1.04.
Take TACAAGGGGA: the switch fluorescence ratio amounted to 1.07.
With AACGGCCCCC, the switch fluorescence ratio worked out at 0.995.
Take CGAATAGGTC: the switch fluorescence ratio came to 1.
As to CACCCCATCA, the switch fluorescence ratio is 1.06.
Under AGTGACGCAG stands 0.952; under TTTGTGCTCT, 0.984.
With ACCATAATCC, the switch fluorescence ratio turned out to be 1.08.
As for CGAGCTGGTG, the switch fluorescence ratio amounted to 1.15.
Turning to ACCTTCGGAT, the switch fluorescence ratio amounted to 1.22.
As for GCTTGCTGAA, the switch fluorescence ratio was 0.982.
With AGGTTCGCCA, the switch fluorescence ratio was found to be 0.972.
For TTGGCCGAAA, the switch fluorescence ratio was found to be 1.
As to GTGTTTTCTA, the switch fluorescence ratio came out at 1.04.
Regarding CATCGAGTCG, the switch fluorescence ratio came to 1.04.
On to GATTGGGCAC, for which the switch fluorescence ratio was found to be 1.01.
Under AGGAGGGGAC stands 1.12; under CCGAACCATG, 1.36; under AACCTCACGA, 1.38.
To GTTATTTCGA belongs 0.991.
As for ATCAAACTAA, the switch fluorescence ratio was 1.01.
Under ATTCTTATAG stands 1.03.
Consider GCAGTACTAC, for which the switch fluorescence ratio was found to be 3.24.
For the sequence TTGAAGTTGA, the switch fluorescence ratio came to 0.959.
As to ATGCTCCTTC, the switch fluorescence ratio was found to be 1.04.
As for ATTTTTCAAG, the switch fluorescence ratio was found to be 0.987.
TAACTGCCCC: the switch fluorescence ratio is 1.24.
To GACGGAAGGA belongs 1.08.
GTTGTAGACG: the switch fluorescence ratio is 1.02.
On to GACTGTTGAT, for which the switch fluorescence ratio stood at 1.
In the case of TGGCAGCCGC, the switch fluorescence ratio amounted to 0.978.
Under TGCCGAAGAC stands 1.31.
Consider CATCCAGGGG, for which the switch fluorescence ratio is 1.1.
In the case of TGTGTCACC, the switch fluorescence ratio amounted to 1.
For the sequence CGAGTCGGTA, the switch fluorescence ratio was 0.995.
Take CGTGCATACT: the switch fluorescence ratio is 1.45.
For the sequence TTCAACCGCG, the switch fluorescence ratio came out at 1.32.
TTGTTGAGAC: the switch fluorescence ratio was found to be 1.01.
To CCGAAATATA belongs 2.01; to GACAGCTCAA, 1.04; to ATTCCTAATG, 1.04.
To GTTACTCTT belongs 1.03.
On to AGCGGTGACC, for which the switch fluorescence ratio worked out at 1.03.
Under CGGTTAACG stands 0.985.
In the case of TGATGTTAT, the switch fluorescence ratio came out at 1.01.
GGCGGGGTCC: the switch fluorescence ratio is 1.03.
As for AAATCTGGTT, the switch fluorescence ratio was determined as 1.01.
As to ATACGTGGTA, the switch fluorescence ratio was determined as 0.994.
With CCGGGATAAC, the switch fluorescence ratio is 2.26.
As for AACTTTTTGT, the switch fluorescence ratio turned out to be 0.982.
As for CCTAGCCGGT, the switch fluorescence ratio turned out to be 1.04.
Regarding CTAAGCTGCA, the switch fluorescence ratio turned out to be 1.06.
As to CCCTGTTTTT, the switch fluorescence ratio was 0.997.
Turning to GGTACAAAAG, the switch fluorescence ratio stood at 1.01.
